In the supplement of paper PMC11876631:
Where a chain is given by its changes, count along the chain named. Names and notes keep the numbering of the source. ± gives the standard deviation of the averaged measurements. Laboratory Escherichia coli strains with one amino-acid change in an essential protein, pooled on minimal glucose agar with carbenicillin or gentamicin at twice the control MIC (plus kanamycin and chloramphenicol for the plasmids), 48 h. Fold change of barcode share against drug-free plates; higher = less susceptible. Active = above 20 in both replicates (the paper's putatively resistant). '<' = one read or none on drug, '>' = one read or none on a drug-free plate. Shares are relative, so most strains fall below 1 when a few take over. Listed are strains with at least 15 reads on both drug-free plates, and hits; most hits rest on fewer reference reads. Replicate rank correlation about 0.5. Edits are read from barcodes.

B1: serC F71D (protein)
chain: MAQIFNFSSGPAMLPAEVLKQAQQELRDWNGLGTSVMEVSHRGKEFIQVAEEAEKDFRDLLNVPSNYKVLDCHGGGRGQFAAVPLNILGDKTTADYVDAGYWAASAIKEAKKYCTPNVFDAKVTVDGLRAVKPMREWQLSDNAAYMHYCPNETIDGIAIDETPDFGADVVVAADFSSTILSRPIDVSRYGVIYAGAQKNIGPAGLTIVIVREDLLGKANIACPSILDYSILNDNGSMFNTPPTFAWYLSGLVFKWLKANGGVAEMDKINQQKAELLYGVIDNSDFYRNDVAKANRSRMNVPFQLADSALDKLFLEESFAAGLHALKGHRVVGGMRASIYNAMPLEGVKALTDFMVEFERRHG
B2: serC F71P (protein)
chain: B1 chain with D71P
B3: serC V208Q (protein)
chain: B1 chain with D71F, V208Q
B4: serC M354A (protein)
chain: B1 chain with D71F, M354A
B5: suhB I51A (protein)
chain: MHPMLNIAVRAARKAGNLIAKNYETPDAVEASQKGSNDFVTNVDKAAEAVAIDTIRKSYPQHTIITEESGELEGTDQDVQWVIDPLDGTTNFIKRLPHFAVSIAVRIKGRTEVAVVYDPMRNELFTATRGQGAQLNGYRLRGSTARDLDGTILATGFPFKAKQYATTYINIVGKLFNECADFRRTGSAALDLAYVAAGRVDGFFEIGLRPWDFAAGELLVREAGGIVSDFTGGHNYMLTGNIVAGNPRVVKAMLANMRDELSDALKR
B6: suhB V82D (protein)
chain: B5 chain with A51I, V82D
B7: suhB I51Q (protein)
chain: B5 chain with A51Q
B8: suhB V116A (protein)
chain: B5 chain with A51I, V116A
B9: suhB V82P (protein)
chain: B5 chain with A51I, V82P
B10: suhB I51W (protein)
chain: B5 chain with A51W
B11: suhB I83Q (protein)
chain: B5 chain with A51I, I83Q
B12: suhB I83A (protein)
chain: B5 chain with A51I, I83A
B13: suhB I83P (protein)
chain: B5 chain with A51I, I83P
B14: suhB V116Q (protein)
chain: B5 chain with A51I, V116Q
B15: suhB I83D (protein)
chain: B5 chain with A51I, I83D

Molecular target: Escherichia coli (laboratory strain)
Experiment: barcode share on antibiotic plates over drug-free plates; higher = less susceptible
Protocol: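 A pool of E. coli strains, each edited to carry one amino-acid change in an essential protein, was grown for 48 h on minimal glucose agar with or without antibiotic; strain barcodes were sequenced; mean of two replicates.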

[1] = antibiotic: carbenicillin, 2× MIC (3.1 µg/mL)
[2] = antibiotic: gentamicin, 2× MIC (MIC 0.45 µg/mL)

| Protein | fold change of barcode share [1] | fold change of barcode share [2] |
| --- | --- | --- |
| B1 | 0.391 ± 0.057 | < 0.00965 |
| B2 | 0.425 ± 0.13 | < 0.0067 |
| B3 | 0.377 ± 0.11 |  |
| B4 | 0.631 ± 0.3 |  |
| B5 | 0.229 ± 0.061 | 0.015 ± 0.015 |
| B6 | 0.415 ± 0.035 |  |
| B7 | 0.284 ± 0.016 | < 0.00447 |
| B8 | 0.245 ± 0.0012 | < 0.00338 |
| B9 | 0.122 ± 0.078 | < 0.018 |
| B10 | 0.292 ± 0.086 | < 0.00344 |
| B11 | 0.287 ± 0.058 | < 0.0104 |
| B12 | 0.129 ± 0.008 | < 0.0213 |
| B13 | 0.289 ± 0.1 | < 0.0154 |
| B14 | 0.277 ± 0.068 | 0.023 ± 0.02 |
| B15 | 0.161 ± 0.068 | < 0.0178 |
